# In the supplement of paper PMC10600219:
# Where a name gives a salt, the structure may show the parent alone. In all, about 2,800 compounds were measured (“cell viability relative to vehicle”: median about 1.1, lowest 2% from about 0.19 on). This is one part of the list.
# System: NCI-H2228 parental
# Assay: cell viability relative to vehicle (fraction of vehicle); NCI-H2228 is an ALK-positive lung cancer line and DTP means drug-tolerant persister; higher = less growth inhibition
# Conditions: 100 nM; treatment time 6 days
# Summary of the method: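 Each value is viability relative to vehicle-treated cells, measured as ATP with the CellTiter-Glo 3D Cell Viability Assay. Parental NCI-H2228 cells and drug-tolerant persisters (1000 nM targeted drug, 13 days) in 384-well plates received the 3114-agent TargetMol anti-cancer compound library at 100 nM, or DMSO, and were read 6 days later.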
row,SMILES,cell viability
1,CC(=O)Nc1cccc(-n2c(=O)n(C3CC3)c(=O)c3c(Nc4ccc(I)cc4F)n(C)c(=O)c(C)c32)c1 [Trametinib],0.403
2,C[C@@H]1Cc2c([nH]c3ccccc23)[C@@H](c2c(F)cc(/C=C/C(=O)O)cc2F)N1CC(C)(C)F,1.15
3,NC(=O)NCCC(=O)O [3-Ureidopropionic acid],1.13
4,N=C1CCCN1Cc1[nH]c(=O)[nH]c(=O)c1Cl [Tipiracil hydrochloride],1.14
5,Nc1[nH]cnc2ncnc1-2 [Adenine hydrochloride],1.15
6,CC(C)(C)c1cnc(CSc2cnc(NC(=O)C3CCNCC3)s2)o1,0.636
7,CC(C)c1c(C(=O)Nc2ccccc2)c(-c2ccccc2)c(-c2ccc(F)cc2)n1CC[C@@H](O)C[C@@H](O)CC(=O)O [Atorvastatin Calcium],1.13
8,CNS(=O)(=O)c1ccccc1Nc1nc(Nc2ccc(N3CCN(C)CC3)cc2OC)ncc1Cl [ALK inhibitor 2],0.448
9,CCN[C@H]1CN(CCCOC)S(=O)(=O)c2sc(S(N)(=O)=O)cc21 [Brinzolamide],1.11
10,CC(C)Oc1ccc(-c2c[nH]cc2CN(C)CCN)cc1,1.05
11,CC(=O)OCC(=O)[C@@]1(O)CC[C@H]2[C@@H]3CCC4=CC(=O)C=C[C@]4(C)[C@@]3(Cl)[C@@H](Cl)C[C@@]21C [Dichlorisone Acetate],0.809
12,COC(=O)Nc1nc2cc(C(=O)c3cccs3)ccc2[nH]1 [Nocodazole],0.325
13,Cc1ccc(C(=O)c2ccc(CC(=O)O)n2C)cc1 [Tolmetin],1.26
14,FC(F)(F)C(Cl)Br (configuration not stated) [Anestan],1.09
15,O=C(O)CCCCCCCC(=O)O [Azelaic acid],1.25
16,COc1cc(Br)c(Nc2nc(-c3c(C)nc4ncccn34)cs2)c(Br)c1,1.04
17,CC(=Cc1ccc(C(=O)O)cc1)c1ccc2c(c1)C(C)(C)CCC2(C)C,0.616
18,O=C(Nc1ccc(O)c(C(=O)O)c1)c1cccc(NC(=O)c2ccco2)c1,1.12
19,O=C(Nc1cccc(C(F)(F)F)c1)c1cccc2cc(Oc3cc(CO)ncn3)ccc12,1.09
20,CC(C)(O)[C@H]1CC[C@@](C)([C@H]2[C@@H](O)C[C@@]3(C)[C@@H]4C[C@H](O[C@@H]5O[C@H](CO)[C@@H](O)[C@H](O)[C@H]5O)[C@H]5C(C)(C)[C@@H](O[C@@H]6OC[C@@H](O)[C@H](O)[C@H]6O)CC[C@@]56C[C@@]46CC[C@]23C)O1 [Astragaloside A],1.12
21,Nc1nc(Nc2ccc3c(c2)CC[C@@H](N2CCCC2)CC3)nn1-c1cc2c(nn1)-c1ccccc1CCC2 [Bemcentinib],1.12
22,Cc1nccnc1N1CCCCC1 [Modaline sulfate],1.03
23,CN(CC(=O)N(Cc1ccc(C2CCCCC2)cc1)c1ccc(C(=O)O)c(O)c1)S(=O)(=O)c1c(F)c(F)c(F)c(F)c1F,1.01

row,SMILES,cell viability
1,CN1CCN(C(=O)/C=C/c2ccc([N+](=O)[O-])o2)CC1,1.03
2,CC(=O)S[C@@H]1CC2=CC(=O)CC[C@]2(C)[C@H]2CC[C@@]3(C)[C@@H](CC[C@@]34CCC(=O)O4)[C@H]12 [Abbolactone],1.15
3,O=S(=O)(c1ccc2c(c1)C(=NO)c1cc(S(=O)(=O)N3CCCCC3)ccc1-2)N1CCCCC1,1
4,C#Cc1cccc(Nc2ncnc3cc(OC)c(OCCCCCCC(=O)NO)cc23)c1,1.17
5,COc1cccc2c1c(O)c(C(=O)N(C)c1ccc(C(F)(F)F)cc1)c(=O)n2C [Tasquinimod],1.06
6,CC(=O)Nc1ccc(C(=O)Nc2ccccc2N)cc1,0.968
7,O=C(O)[C@]1(Cc2cccc(Nc3nccs3)n2)CC[C@@H](Oc2cccc(Cl)c2F)CC1,0.832
8,CC(Cc1cccc(C(F)(F)F)c1)NCCOC(=O)c1ccccc1 (configuration not stated) [Benfluorex hydrochloride],0.854
9,COc1cc2c(NC3CCN(C(C)C)CC3)nc(C3CCCCC3)nc2cc1OCCCN1CCCC1,1.18
10,C[C@@H](CC[C@@]1(O)O[C@H]2C[C@H]3[C@@H]4CC[C@@H]5C[C@@H](O[C@@H]6O[C@H](CO)[C@H](O)[C@H](O)[C@H]6O[C@@H]6O[C@H](CO)[C@@H](O)[C@H](O)[C@H]6O)CC[C@]5(C)[C@H]4CC[C@]3(C)[C@H]2[C@@H]1C)CO[C@@H]1O[C@H](CO)[C@@H](O)[C@H](O)[C@H]1O [Timosaponin BII],1.09
11,CC(C)Oc1ccc(-c2nc(-c3cccc4c3CC[C@@H]4NCCO)no2)cc1C#N [Ozanimod],1.15
12,CN1CCC(=C2c3ccccc3C=Cc3ccccc32)CC1 [Cyproheptadine hydrochloride],1.23
13,CO[C@H]1/C=C/O[C@@]2(C)Oc3c(C)c(O)c4c(O)c(c(/C=N/N5CCN(C6CCCC6)CC5)c(O)c4c3C2=O)NC(=O)/C(C)=C\C=C\[C@H](C)[C@H](O)[C@@H](C)[C@@H](O)[C@@H](C)[C@H](OC(C)=O)[C@@H]1C [Rifapentine],1.06
14,O=c1[nH]c(C2CCCN2)nc2c1oc1ccc(Cl)cc12 (configuration not stated) [XL413 hydrochloride],1.01
15,N=C(N)NC(=N)NCCc1ccccc1 [Phenformin hydrochloride],1.39
16,C[C@H]1O[C@H](O[C@H]2[C@H](O)[C@@H](O)[C@@H](O[C@H]3[C@H](O)[C@@H](O)C(O)O[C@@H]3CO)O[C@@H]2CO)[C@H](O)[C@@H](O)[C@@H]1N[C@H]1C=C(CO)[C@@H](O)[C@H](O)[C@H]1O (some centres not stated) [Acarbose],1.03
17,C[C@@H](Oc1ccc2[nH]nc(/C=C/c3cnn(CCO)c3)c2c1)c1c(Cl)cncc1Cl,0.429
18,CC[C@H]1[C@@H](O)[C@@H]2[C@H](CC[C@]3(C)[C@@H]([C@H](C)CCC(=O)O)CC[C@@H]23)[C@@]2(C)CC[C@@H](O)C[C@@H]12 [Obeticholic Acid],0.963
19,CC1(C)CC[C@]2(C(=O)O)CC[C@]3(C)C(=CC[C@@H]4[C@@]5(C)CC[C@H](O[C@@H]6O[C@H](C(=O)O)[C@@H](O)[C@H](O[C@@H]7OC[C@@H](O)[C@H](O)[C@H]7O)[C@H]6O)C(C)(C)[C@@H]5CC[C@]43C)[C@@H]2C1 [Momordin Ic],1.1
20,CNC1CCCN(c2c(F)cc3c(=O)c(C(=O)O)cn(C4CC4)c3c2OC)C1 (configuration not stated) [Balofloxacin],1.08
21,Cc1ccc(/C(=C\CN2CCCC2)c2ccccn2)cc1 [Triprolidine hydrochloride],1.07
22,C=C1/C(=C\C=C2/CCC[C@]3(C)[C@@H]([C@H](C)CCCC(C)(C)O)CC[C@@H]23)C[C@@H](O)C[C@@H]1O [Calcitriol],0.818
23,CC[C@H](C)[C@@H]([C@@H](CC(=O)N1CCC[C@H]1[C@H](OC)[C@@H](C)C(=O)N[C@@H](Cc1ccccc1)C(=O)O)OC)N(C)C(=O)[C@@H](NC(=O)[C@@H](NC)C(C)C)C(C)C [MonoMethyl auristatin F],0.192

row,SMILES,cell viability
1,COC(=O)c1ccc(N2CCN(C)CC2)c(NC(=O)c2cccc(OC)c2)c1,0.995
2,CCOC(=O)NCCCC(=O)NCCc1ccccc1 [SantacruzaMate A],0.974
3,CCC[C@H](NC(=O)/C(C#N)=C/c1cccc(Br)n1)c1ccccc1 [Degrasyn],1.05
4,CNCCC=C1c2ccccc2CCc2ccccc21 [Nortriptyline hydrochloride],0.887
5,OC[C@H]1O[C@@H](OCCc2ccc(O)cc2)[C@H](O)[C@@H](O)[C@@H]1O [Salidroside],0.996
6,"C[C@H](O)[C@H]1CC[C@H]2[C@@H]3CC[C@@H]4C[C@H](O)CC[C@]4(C)[C@H]3CC[C@]12C [5Beta-Pregnane-3Alpha,20alpha-Diol]",1.25
7,C[C@H]1[C@H](NC(=O)/C(=N\OC(C)(C)C(=O)O)c2csc(N)n2)C(=O)N1S(=O)(=O)O [Aztreonam],1.1
8,CCc1c2c(nc3ccc(OC(=O)N4CCC(N5CCCCC5)CC4)cc13)-c1cc3c(c(=O)n1C2)COC(=O)[C@]3(O)CC [Irinotecan],0.939
9,CCc1c2c(nc3ccc(OC(=O)N4CCC(N5CCCCC5)CC4)cc13)-c1cc3c(c(=O)n1C2)COC(=O)[C@]3(O)CC [Irinotecan hydrochloride trihydrate],1.11
10,CC(=O)Nc1ccc(S(=O)(=O)Nc2ccc([N+](=O)[O-])cc2)cc1 [Sulfanitran],1.03
11,CCc1cc(C(N)=S)ccn1 [Ethinamide],0.845
12,O=C(NC(NC(=S)Nc1ccc(F)c([N+](=O)[O-])c1)C(Cl)(Cl)Cl)C(c1ccccc1)c1ccccc1 (configuration not stated),1.07
13,CN(N=O)C(=O)N[C@@H](C=O)[C@@H](O)[C@H](O)[C@H](O)CO [Streptozocin],0.968
14,O=C1Nc2cc(Br)ccc2/C1=C1/Nc2ccccc2/C1=N\O,0.809
15,Cn1cc(C2=C(c3ccc(Cl)cc3Cl)C(=O)NC2=O)c2ccccc21,1
16,O=C(N/N=C/c1ccc([N+](=O)[O-])o1)c1ccc(O)cc1 [Nifuroxazide],1.22
17,CCOc1cc2ncc(C#N)c(Nc3ccc(OCc4ccccn4)c(Cl)c3)c2cc1NC(=O)/C=C/CN(C)C [Neratinib],0.879
18,Cc1cc(NC(=O)c2cccc(NC(=O)/C=C/CN(C)C)c2)ccc1Nc1nccc(-c2cccnc2)n1,0.951
19,Cc1cn([C@@H]2C[C@@H](O)[C@H](CO)O2)c(=O)[nH]c1=O [Telbivudine],1.06
20,NC(=O)c1ncn([C@@H]2O[C@H](CO)[C@@H](O)[C@H]2O)c1O [Mizoribine],1.1
21,COc1cc2c(cc1O)[C@@H](Cc1ccc(O)c(Oc3ccc(C[C@@H]4c5cc(OC)c(OC)cc5CCN4C)cc3)c1)N(C)CC2 [Daurisoline],1.11
